In PubChem BioAssay AID1468 (National Center for Advancing Translational Sciences (NCATS), 2008):
The whole screen tested about 280,000 compounds, of which about 1,100 (0.39%) were called active. The shares of active, inactive and inconclusive entries below differ from those in the screen. Calls follow the shape of the dose curve; as a rule, active = well fitted inhibition curve with a large enough effect; inconclusive = small, poorly fitted or top-dose-only effect, or effect the other way; inactive = flat fitted curve, though single readings scatter. Where the call is inconclusive, the potency comes from a doubtful curve fit.

Each compound was assayed against Microtubule-associated protein tau (Homo sapiens) (UniProt P10636) (assay: qHTS for Inhibitors of Tau Fibril Formation, Fluorescence Polarization). Settings: K18 P301L tau heparin fibrillization, Alexa594 FP, 6 h; series mostly up to 57.7 µM.
Chain of UniProt P10636 (P10636 whole entry, looked up): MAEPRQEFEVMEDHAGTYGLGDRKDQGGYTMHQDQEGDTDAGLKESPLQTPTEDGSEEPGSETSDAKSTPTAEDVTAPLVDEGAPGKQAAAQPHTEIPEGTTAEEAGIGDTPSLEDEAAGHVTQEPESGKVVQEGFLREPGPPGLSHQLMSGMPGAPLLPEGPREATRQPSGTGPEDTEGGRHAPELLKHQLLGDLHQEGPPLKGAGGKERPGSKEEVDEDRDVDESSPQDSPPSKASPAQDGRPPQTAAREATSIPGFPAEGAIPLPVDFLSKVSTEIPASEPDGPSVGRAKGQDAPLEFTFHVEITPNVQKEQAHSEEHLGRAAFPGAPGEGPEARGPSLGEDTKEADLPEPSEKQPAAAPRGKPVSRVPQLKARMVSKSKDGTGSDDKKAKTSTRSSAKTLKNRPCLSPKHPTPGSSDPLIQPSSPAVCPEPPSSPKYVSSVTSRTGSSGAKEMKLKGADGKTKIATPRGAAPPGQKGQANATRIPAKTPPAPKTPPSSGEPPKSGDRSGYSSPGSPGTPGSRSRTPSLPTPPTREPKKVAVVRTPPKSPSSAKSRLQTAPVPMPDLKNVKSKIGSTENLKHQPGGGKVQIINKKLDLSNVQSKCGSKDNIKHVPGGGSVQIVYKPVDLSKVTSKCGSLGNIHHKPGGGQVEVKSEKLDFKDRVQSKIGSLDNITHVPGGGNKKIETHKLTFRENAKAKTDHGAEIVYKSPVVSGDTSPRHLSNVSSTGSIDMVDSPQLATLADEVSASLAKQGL
How it was run: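 Recombinant K18 P301L […], labeled with Alexa 594 at 0.24 uM over 15 uM unlabeled; heparin inducer 20 uM final; 37 C, 6 hr; FP endpoint.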
% is scaled to controls: 0 for no effect and ±100 for the full control effect; potency is read from the fitted curve at half-maximal effect; tags tell the direction and shape of the fitted curve.
Also: nearly all actives have a fitted effect of over 55% in size.

Potency, inconclusive:
Cc1ccc(Cl)cc1N1CCN(S(=O)(=O)c2ccc3c(c2)C(C(C)C)C(=O)N3)CC1 (stereo unspecified) 20 µM [inhibitor, partial curve, poor fit]
CN1CCN(c2cc(-c3ccccc3)nc3cc(-c4ccc(F)cc4)nn23)CC1 12.6 µM [inhibitor, partial curve]
C/C(=N/NC(=O)c1cccs1)c1ccc(NC(=O)COc2ccc(Cl)cc2Cl)cc1 12.6 µM [inhibitor, partial curve]
C#CCCCCCCCCCCCCCCCC(=O)O 7.08 µM [activator, single point]
Cc1cc(C)c(S(=O)(=O)n2ccc3ccccc32)c(C)c1 39.8 µM [inhibitor, partial curve]
OC(COc1cccc2ccccc12)CN1CCN(c2ccccc2)CC1 (stereo unspecified) 20 µM [activator, single point]
Cc1ccc2oc(-c3cc(NC(=O)CC(C)C)ccc3Cl)nc2c1 8.91 µM [inhibitor, full curve, poor fit]
CCOc1ccc2noc3c2c1C(=O)c1ccccc1-3 39.8 µM [inhibitor, single point]
O=C(O)/C=C/C(=O)N(Cc1ccccc1)Cc1ccco1 4.47 µM [inhibitor, partial curve]
COc1ccc(NS(=O)(=O)c2ccc3nc(COc4ccc(Cl)c(C)c4)[nH]c3c2)cc1 20 µM [inhibitor, partial curve]
COc1ccccc1N(CC(=O)N/N=C/c1c(O)ccc2ccccc12)S(C)(=O)=O 5.62 µM [activator, partial curve, poor fit]
CCOc1ccc(-c2nc(N)ncc2Oc2ccc(OC)cc2)c(O)c1 15.8 µM [inhibitor, partial curve]
Cc1ccc(O)c(N=Cc2cc(Cc3ccccc3)cc([N+](=O)[O-])c2O)c1 22.4 µM [inhibitor, partial curve]
Cc1ccc(NC(=S)NNC(=O)c2ccc(N3CCOCC3)c([N+](=O)[O-])c2)cc1Cl 39.8 µM [activator, single point]
Nc1nc(SCC(=O)c2cccc([N+](=O)[O-])c2)n[nH]1 17.8 µM [inhibitor, partial curve]
COc1ccc(-c2cc(C(F)(F)F)nc(SCCC(=O)Nc3ccc(NC(C)=O)cc3)n2)cc1 15.8 µM [inhibitor, partial curve]
Cc1cc2cc(CNC(=O)c3ccc(S(=O)(=O)N4CCCCC4)cc3)ccc2[nH]1 35.5 µM [activator, single point]
O=C(COc1ccc(Br)cc1Br)NC(=S)Nc1cccc(CO)c1 17.8 µM [inhibitor, partial curve]
COc1ccc(CNC(=O)c2cc(Nc3ccccc3C)nc3ccccc23)cc1 0.631 µM [inhibitor, full curve]
CCOc1ccc(CCNC(=O)COC(=O)c2cccc(OC)c2O)cc1OCC 7.94 µM [inhibitor, single point]
O=C(Nc1ccc(Cl)cc1)C1CCC(CNS(=O)(=O)c2ccc(Br)s2)CC1 (stereo unspecified) 31.6 µM [inhibitor, partial curve]
Cc1cc(NC(=O)c2ccc3c(c2)N(Cc2cccc(Cl)c2)C(=O)c2ccccc2S3(=O)=O)ccc1Br 17.8 µM [inhibitor, partial curve, poor fit]
O=C(Nc1cccc(Cl)c1)C1CCCN(S(=O)(=O)c2ccc(F)cc2)C1 (stereo unspecified) 8.91 µM [inhibitor, partial curve]
Cc1ccc2cccc(OCC(=O)N3CCc4ccccc43)c2n1 0.0631 µM [activator, full curve, poor fit]
Cc1ccc(Nc2cc(C(=O)NCCc3ccccc3)c3ccccc3n2)c(C)c1 1.58 µM [inhibitor, partial curve]
O=C(c1nnsc1S(=O)c1ccc(Cl)cc1)N1CCOCC1 (stereo unspecified) 14.1 µM [inhibitor, partial curve]
O=C(CCN1C(=O)/C(=C/c2ccccc2)SC1=S)NNC(=O)c1cccnc1 25.1 µM [activator, partial curve]
CC1CN2C(CCC(C)C2c2ccc(Br)cc2)C(=O)O1 (stereo unspecified) 0.126 µM [inhibitor, full curve, poor fit]
O=C(CSc1nc(-c2ccccc2)cn1-c1ccccc1F)Nc1ccc(F)cc1 25.1 µM [inhibitor, single point]
CN1CCc2c(sc(/N=C/c3ccco3)c2C(N)=O)C1 20 µM [inhibitor, single point]
O=C(Cn1nc(-c2ccc(Cl)cc2)c2ccccc2c1=O)Nc1cccc(Br)c1 20 µM [inhibitor, partial curve]
CCCOC(=O)c1cccc(NC(=O)c2c(-c3ccccc3Cl)noc2C)c1 22.4 µM [inhibitor, single point]
COc1ccc(NS(=O)(=O)c2ccc(NC(=O)c3ccc(N(C)S(C)(=O)=O)cc3)cc2)cc1 22.4 µM [inhibitor, single point]
c1cnc(Oc2ccc3oc4ccccc4c3c2)nc1 44.7 µM [inhibitor, single point]
CCN(CC)C(=O)c1ccccc1NC(=O)CN1C(=O)c2ccccc2C1=O 3.55 µM [inhibitor, single point]
CN(C)CCCn1c(SCC(=O)N2CC(=O)Nc3ccccc32)nc2ccccc2c1=O 39.8 µM [inhibitor, single point]
Cn1c(=O)n(Cc2ccc(Cl)cc2)c(=O)c2c1nc1n2CCN1Cc1ccco1 39.8 µM [activator, single point]
O=C(Nc1cc2c(cc1C(=O)c1ccccc1Br)OCCO2)c1ccccc1 12.6 µM [inhibitor, partial curve, poor fit]
O=C(Nc1ccc2nc(SCC(=O)N3CCc4ccccc43)sc2c1)c1ccccc1 15.8 µM [inhibitor, partial curve]
CC(=O)/C=C/c1ccc(C)o1 22.4 µM [inhibitor, partial curve]
O=C(NCc1cccnc1)c1ccc(Cn2c(=S)[nH]c3ccc(Br)cc3c2=O)cc1 39.8 µM [inhibitor, single point]

Potency, inactive:
O=C(CNc1ccc2ccccc2c1)N/N=C/c1ccc([N+](=O)[O-])o1
COc1ccc(C(=O)/C=C/c2ccccc2)c(OC)c1
CCCc1cc(=O)oc2c(C)c3c(cc12)CN(CCc1ccc(Cl)cc1)CO3
COc1ccc2cc(CCNS(=O)(=O)c3ccc(C)cc3)c(=O)[nH]c2c1
COc1ccc(C(=O)Oc2cc3c4c(c2)C(C)=CC(C)(C)N4C(=O)C3=O)cc1OC
COc1ccc(N=C2C(=O)N3c4c(cccc42)C(C)=CC3(C)C)cc1
CCN(CC)c1ccc(CNCCCSc2nnnn2C)cc1
CCOc1ccccc1NC(=O)CCC(=O)Nc1ccc2nc(N3CCN(C)CC3)cc(C)c2c1
CC(C)CCn1nnnc1C(c1ccccc1)N1CCN(C)CC1 (stereo unspecified)
CCCN(C(=O)c1cn(C)c(=O)c2cc(OC)c(OC)cc12)c1ccc(CC)cc1
COc1ccc(S(=O)(=O)N=C2C=C(C)C(=O)C(C)=C2)cc1
Cc1ccc(C(O)C2=CCCC2=O)cc1 (stereo unspecified)
CC1CCN(S(=O)(=O)c2ccc3c(c2)c(=O)c(C(=O)N2CCN(c4cccc(Cl)c4)CC2)cn3C)CC1
C=CCn1c(SCC(=O)N2CCc3ccccc3C2)nc2sc(CC)cc2c1=O
CC1CN(C2CCN(S(=O)(=O)c3ccc4ccccc4c3)CC2)CC(C)O1 (stereo unspecified)
CCCCC1=CC2=CC(=O)C(C)(OC(=O)CC)C(=O)C2=CN1Cc1ccc2c(c1)OCO2 (stereo unspecified)
CC1(C)CC(=O)C2=C(C1)OC1=C(C(=O)CC(C)(C)C1)C2c1ccccc1
Cc1ccc(-n2nc3c(n2)/C(=N/O)CC/C3=N\O)cc1
COc1cc(OC)c(N(C)C(=O)c2c(C)oc3ncnc(N4CCCCC4)c23)cc1Cl
O=C(c1ccco1)N1CCCN(C(=O)c2ccco2)CC1
c1ccc(-n2nnnc2SCc2cccc3nsnc23)cc1
Cn1ccnc1C(=O)c1ccc(NN)c([N+](=O)[O-])c1
COC(=O)c1cc2c(cc1Cl)N1CCCCCC1=NS2(=O)=O
CCCCCn1c(-c2ccco2)nc2nc3ccccc3nc21
Cc1ccc2sc(-c3ccc(N)cc3)nc2c1
COc1c2c(cc3c1C(CC(O)C(C)C)N(C)CC3)OCO2 (stereo unspecified)

Potency, active:
CC(C)c1ccc(NC(=O)C2CCCN2S(=O)(=O)c2ccc3nc(-c4ccccc4)[nH]c3c2)cc1 (stereo unspecified) 14.1 µM
Cn1c(N)c(C(=O)COC(=O)c2cc(-c3ccccc3)nc3ccccc23)c(=O)n(Cc2ccccc2)c1=O 14.1 µM
Cc1nc(N=Nc2cc(S(=O)(=O)O)c3cc([N+](=O)[O-])cc(S(=O)(=O)O)c3c2)c(COP(=O)(O)O)c(C=O)c1O 20 µM

activity, negative = inhibition, inactive:
Nn1c(Cc2ccccc2)n[nH]c1=S -5.49% [at 2.34 µM]
